# Out of some 370,000 compounds screened, about 150 (0.041%) were called active. This list was built around the results that the source calls inconclusive (neither active nor inactive); the mix of calls is not that of the screen. Calls come from the whole dose curve; as a rule, active = well fitted inhibition curve with a large enough effect; inconclusive = small, poorly fitted or top-dose-only effect; inactive = flat fitted curve, though single readings scatter. Potencies of inconclusive entries are left out as doubtful fits.
# Target: Beta-lactamase (Escherichia coli (strain K12)) (UniProt P00811)
# Sequence of UniProt P00811 (P00811 whole entry, looked up): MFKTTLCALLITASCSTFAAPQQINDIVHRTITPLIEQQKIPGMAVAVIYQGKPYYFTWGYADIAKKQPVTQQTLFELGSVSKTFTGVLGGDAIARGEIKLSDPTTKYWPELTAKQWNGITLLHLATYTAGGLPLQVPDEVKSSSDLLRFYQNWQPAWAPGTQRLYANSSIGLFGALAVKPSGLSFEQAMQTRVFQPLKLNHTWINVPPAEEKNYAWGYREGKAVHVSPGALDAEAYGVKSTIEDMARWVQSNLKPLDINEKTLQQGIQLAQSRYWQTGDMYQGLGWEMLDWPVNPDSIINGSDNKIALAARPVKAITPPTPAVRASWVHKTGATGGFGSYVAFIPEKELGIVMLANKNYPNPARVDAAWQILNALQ
# Assay: qHTS Inhibitors of AmpC Beta-Lactamase (assay with detergent); note: nearly all actives have a fitted effect of over 25% in size;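 for activity change, negative = inhibition: 0% = no-compound wells and -100% = no-enzyme wells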
# Conditions: AmpC hydrolysis of nitrocefin, absorbance 480 nm, 0.01% Triton; activity change, negative = inhibition: at 114 µM (top of the series)
# Summary of the method: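 20 mM phosphate pH 7.0 + 0.01% (detergent screen) or 0.0001% Triton X-100; 5.3 nM AmpC reagent; cpd preinc 15 min RT; nitrocefin (800 uM stock) to start; A480 q20 s × 4 min; Activity was normalised to no-enzyme and no-compound control wells.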
# Potency is the fitted concentration of half-maximal effect; tags give direction and shape of the fitted curve.
SMILES,Potency,"activity change, negative = inhibition"
CCc1ccc(C2c3[nH]c4ccccc4c3CCN2C(=O)c2ccc(=O)n(C)n2)cc1 (stereo not drawn),inactive,–
O=C(Nc1ccnn1C1CCN(Cc2c[nH]c3ccccc23)CC1)c1ccccc1,"inconclusive [inhibitor, partial curve]",–
CCC(C)NC(=O)c1nn(Cc2ccccc2)c(=O)c2ccccc12 (stereo not drawn),"inconclusive [inhibitor, full curve, poor fit]",–
NS(=O)(=O)c1ccc(CCNC(=O)C2CCCO2)cc1 (stereo not drawn),"inconclusive [inhibitor, partial curve, poor fit]",–
CC(C(=O)N1CCC2(CC1)OCCO2)C1Sc2ccccc2NC1=O (stereo not drawn),"inconclusive [inhibitor, full curve, poor fit]",–
COc1cc2c(cc1NC(=O)CSCC(=O)O)oc1ccccc12,"inconclusive [inhibitor, full curve]",–
CCOC(=O)c1cc2occc2n1CC(=O)Nc1ccc(OC)cc1OC,–,inconclusive: -15.7% [inhibitor]
COCC(=O)Nc1cc(OC)cc(OC)c1,"inconclusive [inhibitor, single point]",–
COc1ccc(CNC(=O)Cc2csc(NC(=O)Nc3ccccc3OC)n2)cc1,"inconclusive [inhibitor, full curve, poor fit]",–
O=C(Nc1nc2ccc([N+](=O)[O-])cc2s1)C1CCCO1 (stereo not drawn),inactive,–
COC(=O)NC1(C(F)(F)F)NC(=O)N(C2CCCCC2)C1=O (stereo not drawn),"inconclusive [inhibitor, single point]",–
Cn1c(SCc2ccc(C(F)(F)F)cc2)nc2c([nH]c3ccccc32)c1=O,inactive,–
Cc1ccccc1NC(=O)COc1ccc(Br)cc1C,"inconclusive [inhibitor, full curve, poor fit]",–
CCC(CO)Nc1ncnc2c1cnn2-c1ccc(Cl)cc1 (stereo not drawn),inactive,–
CCSc1nc(-c2ccc(OC)cc2)cc(-c2ccccc2)c1C#N,"inconclusive [inhibitor, single point]",–
CCCCOCC(O)Cn1c(C)nc2ccccc21 (stereo not drawn),"inconclusive [inhibitor, full curve, poor fit]",–
CCOC(=O)c1c(NC(=O)c2nc(SC(C)C)ncc2Cl)sc2c1CCCC2,inactive,–
O=C(O)CC(NCc1ccco1)C(=O)OCCCl (stereo not drawn),"inconclusive [inhibitor, single point]",–
CN(C)C(=O)c1c2c(nc3ccccc13)CCCC2,"inconclusive [inhibitor, single point]",–
COc1cc(Cl)c(C)cc1NC(=O)c1sc2nc3n(c(=O)c2c1C)CCCCC3,inactive,–
O=C(CSCc1ccc(F)cc1)N1CCN(c2ccc(F)cc2)CC1,"inconclusive [inhibitor, single point]",–
Cc1cccc(C2CC(c3ccc(Cl)cc3)Nc3nc(N)nn32)c1 (stereo not drawn),"inconclusive [inhibitor, partial curve, poor fit]",–
CC(=O)NNc1nc(-c2ccccc2)c2cc(Br)ccc2n1,"inconclusive [inhibitor, full curve]",–

SMILES,Potency,"activity change, negative = inhibition"
CC1CN(S(=O)(=O)c2cc(C(=O)N(CCc3ccccc3)Cc3ccccc3)ccc2Cl)CC(C)O1 (stereo not drawn),"inconclusive [inhibitor, full curve, poor fit]",–
CCNc1nc(OCCNC(C)=O)nc(N(C)C)n1,inactive,–
CC1CCCCC1NC(=O)c1cc2c(=O)n3ccccc3nc2n1C (stereo not drawn),"inconclusive [inhibitor, partial curve]",–
CC(C(=O)NCc1cccs1)N1C(=O)c2ccccc2C1=O (stereo not drawn),"inconclusive [inhibitor, full curve, poor fit]",–
COc1ccccc1N1CCN(c2ncnc3c2oc2ccccc23)CC1,"inconclusive [inhibitor, full curve, poor fit]",–
C#CCn1c(=NC(=O)c2ccc(S(=O)(=O)N3CCc4ccccc4C3)cc2)sc2cc(S(N)(=O)=O)ccc21,inactive,–
FC(F)(F)c1ccccc1NC(=S)N1CCN(c2ccccn2)CC1,"inconclusive [inhibitor, partial curve]",–
CC(=O)c1ccc(S(=O)(=O)NCCC(=O)OC(C)C(=O)Nc2ccc(F)cc2)cc1 (stereo not drawn),"inconclusive [inhibitor, full curve, poor fit]",–
CCOC(=O)C1CCCN(C(=O)c2ccc([N+](=O)[O-])cc2)C1 (stereo not drawn),"inconclusive [inhibitor, full curve, poor fit]",–
CCOc1cc2[nH]c(=O)n(CCCCC(=O)N3CCCCCC3)c(=O)c2cc1OCC,"inconclusive [inhibitor, single point]",–
CC1CCCN(c2ccc(/C=C(\C#N)c3nn(-c4ccccc4)c(N)c3C#N)cc2[N+](=O)[O-])C1 (stereo not drawn),"inconclusive [inhibitor, full curve, poor fit]",–
COc1ccc(N2CCN(C(=O)c3ccc(-n4nc(C)cc4C)cc3)CC2)cc1,"inconclusive [inhibitor, partial curve]",–
COc1ccc(N2CCN(S(=O)(=O)CCNC(=O)Cc3ccc(Cl)cc3)CC2)cc1,inactive,–
Cc1ccc(C(C(=O)NC(C)(C)C)N(CC2CCCO2)C(=O)CCC(=O)Nc2ccccn2)cc1 (stereo not drawn),inactive,–
O=C(NCCN1CCOCC1)C12CC3CC(C1)CC(c1ccccc1)(C3)C2,"inconclusive [inhibitor, full curve]",–
CCOC(=O)CSc1nc2c(sc(=S)n2-c2ccccc2)c(=O)[nH]1,"inconclusive [inhibitor, full curve, poor fit]",–
Cc1ccc(SCCN2CCN(Cc3ccccc3)CC2)cc1,"inconclusive [inhibitor, full curve, poor fit]",–
Cc1ccc(C(=O)OCC(=O)c2ccc[nH]2)s1,inactive,–
Cc1ccc2nc(SCC(=O)NC3CCCC3)nc(=O)n2c1,"inconclusive [inhibitor, partial curve]",–
NC(=O)c1ccccc1OCc1nc2ccccc2s1,inactive,–
O=C(Cc1ccc(Cl)c(Cl)c1)Nc1ccc(SC(F)F)cc1,"inconclusive [inhibitor, full curve, poor fit]",–
Cc1ccc(C2=N/C(=C\N3CCCCC3)C(=O)O2)cc1,"inconclusive [inhibitor, full curve]",–
O=C(Nc1nnc(-c2ccncc2)o1)c1ccc2ccccc2c1,inactive,–

SMILES,Potency,"activity change, negative = inhibition"
Cc1ccc(C(=O)O)cc1NC(=S)NCCc1ccccc1,"inconclusive [inhibitor, full curve]",–
Cc1csc(NC(=O)CCC(=O)c2cccs2)n1,"inconclusive [inhibitor, single point]",–
CC(=O)Cc1nsc(Nc2ccc3c(c2)OCCO3)n1,"inconclusive [inhibitor, full curve]",–
Cc1ccc(NC(=S)NCc2ccc(F)cc2)c(C)c1,"inconclusive [inhibitor, single point]",–
Cc1nc2ccc(NS(=O)(=O)c3ccc(F)c(F)c3)cc2s1,inactive,–
Cc1cc(=O)n2c3c(cccc13)CCC2,"inconclusive [inhibitor, partial curve, poor fit]",–
CC1(C(=O)NCCN2CCOCC2)C=CCN1C(=O)c1ccccc1 (stereo not drawn),"inconclusive [inhibitor, full curve, poor fit]",–
Cc1[nH]c(C)c(C(=O)/C=C/c2ccc([N+](=O)[O-])cc2)c1C,"inconclusive [inhibitor, partial curve]",–
C=CCOC(=O)C1C(=O)CC(C)(O)C(C(=O)OCC=C)C1c1ccc(OC)cc1 (stereo not drawn),"inconclusive [inhibitor, full curve]",–
CCC1c2ccc(C)n2CCN1C(=O)Nc1ccc(F)cc1 (stereo not drawn),"inconclusive [inhibitor, single point]",–
COc1ccc(/C(O)=C2\C(=O)C(=O)N(CCN(C)C)C2c2cccc(OC)c2OC)cc1 (stereo not drawn),"inconclusive [inhibitor, full curve, poor fit]",–
CN(C)c1ccc(C(CNC(=O)c2ccc(C(C)(C)C)cc2)N2CCOCC2)cc1 (stereo not drawn),inactive,–
CCOc1ccc(/C=C2/SC(=S)N(CCC(=O)Nc3ccc(C(=O)O)cc3)C2=O)cc1,"inconclusive [inhibitor, full curve, poor fit]",–
CC(=O)c1sc2nsc(SCCN3CCOCC3)c2c1N,inactive,–
O=C(Nc1cccc(S(=O)(=O)N2CCCCC2)c1)c1cc2ccccc2o1,inactive,–
O[C@H]1COC2C1OC[C@@H]2O (stereo partly drawn),"inconclusive [inhibitor, full curve]",–
CCOc1ccc(C(=O)C2CCN(C(=O)c3ccc([N+](=O)[O-])cc3)CC2)cc1,"inconclusive [inhibitor, single point]",–
CC1CCN(c2ccc(-c3cccc(NC(=O)c4ccco4)c3)nn2)CC1,"inconclusive [inhibitor, partial curve, poor fit]",–
Cc1c(Cl)cccc1N1C(=O)CC(NNC(=O)c2cccs2)C1=O (stereo not drawn),"inconclusive [inhibitor, full curve]",–
CCN(C(=O)COC(=O)CNC(=O)c1ccc(C)cc1)c1c(N)n(Cc2ccccc2)c(=O)[nH]c1=O,"inconclusive [inhibitor, single point]",–
COC(=O)c1cccc(-n2c(CCC(=O)O)ccc2-c2ccc(OC)cc2)c1,inactive,–
Cc1cccc(-c2noc(-c3ccc4c(c3)OCO4)n2)c1,inactive,–

# From PubChem BioAssay AID485294 (National Center for Advancing Translational Sciences (NCATS), 2010)
